Source: PubChem BioAssay AID1508624 (National Center for Advancing Translational Sciences (NCATS), 2021)
About 120 (0.25%) of roughly 48,000 compounds were called active. Not shown: some 4% with an inconclusive outcome. Calls follow the shape of the dose curve; as a rule, active = well fitted activation curve with a large enough effect; inconclusive = small, poorly fitted or top-dose-only effect, or another doubt; inactive = no such curve, though single readings can be large or run the other way. Some of the results follow.

Experiment: Primary qHTS for Identification of Small Molecule Activators of Huntingtin-Antisense Promoter Activity; also: nearly all actives have a fitted effect of over 55% in size
Conditions: HEK293 HTT-AS promoter firefly luciferase reporter (activity 0% = vehicle and -100% = no light), 24 h; series mostly up to 57.5 µM; activity change, positive = activation: at the top concentration
Method in brief: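 HEK293 cells carrying firefly luciferase reporters were seeded at 2,500 per well in Opti-MEM and cultured for 24 h. They were then treated with compounds at up to 57.5 uM final for 24 h at 37 degrees C before Dual-Glo luminescence readout.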

Activity change, positive = activation, inactive:
O=C(Nc1ccc(F)c(Cl)c1)C1CCCN1S(=O)(=O)c1ccc(F)cc1 (stereo not drawn) -8.81%
COc1ccc(NC(=O)C(CC(C)C)NS(=O)(=O)c2ccc3c(c2)oc(=O)n3C)cc1Cl (stereo not drawn) -5.69%
CCOc1ccc(NC(=O)Cn2c(=O)n(Cc3nc(-c4ccccc4)no3)c(=O)c3ccccc32)cc1 -11%
CCOC(=O)C1=C(CS(=O)(=O)c2ccc(C)c(C)c2)NC(=O)NC1c1ccccc1OCC (stereo not drawn) -9.08%
COc1ccc(N(CC(=O)N2CCN(c3cccc(OC)c3)CC2)S(=O)(=O)c2c(C)noc2C)cc1 -28.9%
O=C(Cn1c(=O)ccc2cc(S(=O)(=O)N3CCCC3)ccc21)NCc1ccc(F)cc1 -15.7%
CCOc1cc(C2c3c(oc4ccccc4c3=O)C(=O)N2Cc2ccccc2Cl)ccc1O (stereo not drawn) -17.6%
Cc1sc(NC(=O)COc2ccc(C(C)(C)C)cc2)c(C(=O)OC(C)C)c1C -15.3%
CCc1ccc(N2C(=O)CS(=O)(=O)C23C(=O)N(Cc2ccccc2F)c2ccccc23)cc1 (stereo not drawn) -22.5%
CCn1cc(C(=O)N2CCN(c3ccccc3)CC2)c(=O)c2cc(S(=O)(=O)N3CCC(C)CC3)ccc21 -8.95%
COc1ccc(C2CC(=O)c3c([nH]c(C(=O)OCCOc4ccccc4)c3C)C2)cc1OC (stereo not drawn) -37.3%
CCOc1ccc(NC(=O)c2cn3c4c(ccc(Cl)c4c2=O)OC(C)C3)cc1 (stereo not drawn) -12.7%
Cc1onc(-c2c(Cl)cccc2Cl)c1C(=O)N[C@@H]1C(=O)N2[C@@H]1SC(C)(C)[C@@H]2C(=O)O -11.7%
COc1cccc(CNC(=O)c2cccn2-c2nnc(N3CCCC3)s2)c1 -4.45%
CCN1CCN(C(=O)c2cnn(-c3cccc(C)c3)c2C2CCN(C(=O)OC(C)(C)C)CC2)CC1 8.18%
Cc1cc(NC(=O)Nc2ccc(N(C)C)cc2)c2cc(F)cc(F)c2n1 -1.49%
Cc1ccc(-c2noc(C3CC(=O)N(c4ccc5c(c4)OCCO5)C3)n2)cc1 (stereo not drawn) -8.49%
COc1ccc(CNC(=O)C2CCN(S(=O)(=O)c3cn(C)cn3)CC2)cc1 -3.67%
COc1ccc(NC(=O)N(Cc2ccco2)C2CCN(C(C)=O)CC2)c(OC)c1 -17.7%
Cc1cc(NC(=O)CN2C(=O)CSc3ccc(S(=O)(=O)N(C)C)cc32)ccc1Br -8.87%
CCOC(=O)c1c(NC(=O)c2nc(SC)ncc2Cl)sc(C)c1C 1.98%
CSc1ccc(CCNC(=O)c2ccc3c(c2)nc2n3CCOC2)cc1 3.13%
CC1(C)Oc2ccc(C#N)cc2[C@@H](N2CCCC2=O)[C@@H]1O -3.18%
Cc1ccc(-n2c(SCC(=O)N3CCC(C)CC3)nc3c([nH]c4ccccc43)c2=O)cc1 25.4%
CC(C)c1nnc(NC(=O)c2nc(S(=O)(=O)Cc3ccccc3)ncc2Cl)s1 -94.3%
COc1ccc(Cl)cc1NC(=O)CSc1cn(CC(=O)N2CCCC2)c2ccccc12 -38.1%
Cn1c(=O)n(CCCc2ccccc2)c(=O)c2c1nc1n2CCN1c1ccccc1 -12.3%
CCOC(=O)c1scc(-c2ccc(C)cc2)c1S(=O)(=O)Nc1ccc(F)c(F)c1 -13.7%
COc1ccc2c(c1)c(=O)c(C(=O)c1ccc(Cl)cc1)cn2CC(=O)Nc1ccc2c(c1)OCO2 -7.83%
CCN(Cc1ccccc1)C(=O)CCS(=O)(=O)c1ccc2c(c1)oc(=O)n2C -9.95%
Cc1c(Cl)cccc1NC(=O)NCCOCCn1c(=O)oc2ccccc21 -21.9%
CCOC(=O)N1CCc2c(sc(NCc3sccc3C)c2C(=O)Nc2ccccc2OCC)C1 -8.69%
CCOC(=O)c1ccc(NC(=O)CN2C(=O)CC(c3ccc(C)c(C)c3)=Nc3ccccc32)cc1 25.9%
CCOc1ccc(CCNC(=O)c2ccc3c(c2)N(Cc2cccc(Cl)c2)C(=O)c2ccccc2S3(=O)=O)cc1OCC -10.5%
Cc1ccccc1Oc1nc2c(c(=O)n(C)c(=O)n2C)n1Cc1ccc(Br)cc1 -13.9%
Cc1ccc(C)c(CSc2nc3ccncc3n2Cc2nc(-c3ccccc3Cl)oc2C)c1 -39.9%
CC(NC(=O)CSc1n[nH]c(-c2ccccc2)n1)c1nc2ccccc2n1C (stereo not drawn) -13.3%
COc1cc(OC)c(NC(=O)c2cc(S(=O)(=O)N3CCCC3)cn2C)cc1Cl -18.3%
Cc1ccc(S(=O)Cc2nc(-c3ccc(C(=O)NC(C)c4ccccc4)cc3)oc2C)cc1 (stereo not drawn) -9.75%
CCCCc1ccc(Nc2ncnc3c2cnn3-c2ccc(C)cc2)cc1 -9.54%
CCC1CCCCN1C(=O)Cn1c(=O)n(CC2CCC(C(=O)NC)CC2)c(=O)c2sccc21 (stereo not drawn) -4.78%
O=C(Nc1ccc(OC(F)(F)F)cc1)NC1COc2ccccc2C1 (stereo not drawn) -11.4%
Cc1ccc2c(c1)nc(SCC(O)c1ccc(Br)cc1)n2C (stereo not drawn) -16%
COC(=O)c1ccc(C(=O)OC)c(NC(=O)c2c(-c3ccccc3)c(-c3ccccc3)nn(C)c2=O)c1 -33.7%
COc1ccc(N2CCN(Cc3nc4c(c(=O)[nH]c(=O)n4C)n3Cc3ccccc3)CC2)cc1 -15.1%
Cn1c(=O)c2sccc2n2c(CCC(=O)NCc3ccccc3)nnc12 -1.81%
Cc1cccc(C)c1NC(=O)CN(C)S(=O)(=O)c1ccc2c(c1)n(C)c(=O)c(=O)n2C -0.324%
CCSc1nc(=O)c2c(n1C)NC(=O)CC2c1ccc(O)cc1OC (stereo not drawn) -7.28%
CCc1ccc(OCC(=O)NCC(c2ccc(OC)cc2)N2CCOCC2)cc1 (stereo not drawn) -18.1%
COc1ccc(-n2c(=O)c3sc4ccccc4c3n(Cc3ccccc3)c2=O)cc1 -6.62%
Cc1cccc(C(=O)N(Cc2nc(-c3ccc(Cl)cc3)no2)C(C)C)c1 -12.1%
CC(=O)c1cccc(NC(=O)Cn2c(C)c3cnn(-c4ccccc4)c(=O)c3c2C)c1 -25.7%
CCN(CC)CCNC(=O)c1ccc2c(c1)N(Cc1ccccc1)C(=O)c1ccccc1S2=O (stereo not drawn) -18%
Cc1ccc2c(CNC3CCC(C)CC3)c(C(=O)O)n(Cc3cccc(F)c3)c2c1 (stereo not drawn) -14.2%
CC1CCN(c2nc3ccc(C(=O)NCc4ccc(Cl)cc4)cc3s2)CC1 -78.7%
COc1cc(NC(=O)c2cc3nc(-c4ccccc4)cc(-c4ccccc4)n3n2)c(OC)cc1Cl 1.53%
COc1ccc(C2CC(=O)N(CC(=O)Nc3ccc(C(F)(F)F)cc3)c3ccccc3S2)cc1 (stereo not drawn) -24.2%
COc1ccc(C(=O)Nc2ccc3nc(SCC(=O)N4CCOCC4)sc3c2)cc1 -7.39%
COC(=O)c1ccc(OC)c(Cn2c(=O)n(-c3ccc(C)cc3)c(=O)c3c2cnn3C)c1 -40.3%
CCc1nn(CC(=O)NC2CC2)c(=O)c2cc3ccccc3n12 13.5%
COc1cccc(CNC(=O)c2c3c(nc4ccccc24)C(=O)N(C2CCCCC2)C3)c1 -15.8%
Cn1cc(C(=O)NCc2ccccc2)c(=O)c2cc(S(=O)(=O)N3CCCCCC3)ccc21 -14.3%
CCc1ccc(CNC(=O)Cc2c(C(=O)O)c(C)cn2C)cc1 -8.19%
CCc1nnc(SCc2nc(-c3ccccc3)oc2C)c2cc3sccc3n12 -12.2%
Cc1ccc(C)c(NC(=O)Cn2c(=O)n(Cc3cccs3)c(=O)c3cccnc32)c1 -23.5%
CC(C)(C)OC(=O)N1CCC(c2c(C(=O)N3CCN(c4ncccn4)CC3)cnn2-c2ccc(F)cc2F)CC1 -13.2%
COc1ccc(-c2cn3nc(N4CCC(C(=O)Nc5cc(Cl)ccc5OC)CC4)sc3n2)cc1 20.4%
COc1ccc(OC)c(NC(=O)C(CCSC)NS(=O)(=O)c2cccs2)c1 (stereo not drawn) -3.4%
COc1ccc(-c2nc(SCC(=O)N3CCC(C)CC3)n[nH]2)cc1 -15.9%
C[N+](C)(C)CCCCCC[N+](C)(C)C -4.57%
Cc1ccc(Cl)cc1NC(=O)/C(C#N)=C\c1cn(Cc2ccc(F)cc2)c2ccccc12 -27.4%
COc1ccc(C(=O)Nc2ccc(C(=O)OCc3cc(=O)n4nc(C(C)C)sc4n3)cc2)cc1 38.5%
Cc1ccccc1C(=O)Nc1ccc2nc(SCCOc3ccccc3)sc2c1 -20.7%
CCOC(=O)c1c(S(=O)(=O)NCC(=O)NCc2ccc(C)cc2)c(C)n(C)c1C -6.42%
Fc1ccc(CNc2cc(-c3ccccc3)nc3nncn23)cc1 -29.3%
CC1C(=O)OC2C(O)C34C5CC(C(C)(C)C)C36C(OC(=O)C6O)OC4(C(=O)O5)C12O (stereo not drawn) -5.44%
COc1cccc(CCNc2ncnc3c2nnn3C)c1 -7.96%
O=C(NCc1ccc(F)cc1)c1cc2c(s1)-c1ccccc1SC2 8.39%
O=C(CCCn1c(=O)c2ccccc2n(CC(=O)Nc2ccc(F)cc2F)c1=O)NCc1ccccc1Cl -33.9%
COc1cc2c(=O)n(CCC(=O)NCC3CCCO3)c(=O)n(CC(=O)Nc3c(C)cccc3C)c2cc1OC (stereo not drawn) -4.24%
CCCCOC(=O)c1ccc(NC(=O)/C(C#N)=C/c2ccc(-c3ccccc3)o2)cc1 -6.46%
CC(=O)c1ccc(NC(=O)CSc2ccc3nc(-c4ccccc4)cn3n2)cc1 -61%
Cc1ccc(-c2cc(C(=O)N3CCN(S(=O)(=O)c4ccc(Br)s4)CC3)[nH]n2)c(C)c1 -21.8%
CCOc1ccc(CCNC(=O)C2Cc3ccccc3N2C(=O)CC)cc1OCC (stereo not drawn) -4.98%
Cc1ccc(N(CC(=O)Nc2ccc(Br)c(C)c2)S(=O)(=O)c2cccs2)cc1 -18.5%
CN(C)c1ccc(CNC(=O)C(Cc2ccccc2)NS(=O)(=O)c2ccc3c(c2)oc(=O)n3C)cc1 (stereo not drawn) 13.5%
N#Cc1ccccc1NC(=O)C(=O)NCC(c1cccnc1)N1CCN(c2ccccc2)CC1 (stereo not drawn) -15.5%
CCOc1ccc(C(=O)Nc2ccc3nc(SCC(=O)N4CCOCC4)sc3c2)cc1 -23.1%
Cc1ccc(OCC(=O)Nc2ccc(-c3nc4ccc(C)cc4o3)cc2)cc1 30.1%
CCN1CCN(C(=O)c2ccc3c(c2)N(Cc2cc(C)ccc2C)C(=O)c2ccccc2S3(=O)=O)CC1 -14.5%
CCOc1ccccc1Nc1ccc2cc(S(=O)(=O)N3CCCCC3)ccc2n1 -32.9%
CCOC(=O)c1c(C)oc2nc(C)nc(NCCc3ccc(S(N)(=O)=O)cc3)c12 -27.5%
O=C(NCCc1ccccc1)c1cnc2sc(N3CCOCC3)nn2c1=O -1.2%
